Measurements taken from patent US8933202B2, “AXL antibodies” (U3 Pharma GmbH, priority 2007, dated 2015).

What was measured:
HUVEC spheroids = experiment: Spheroid-based cellular angiogenesis assay; format: cell-based, human; settings: 25 ng/ml VEGF-A, 24 h
Experimental: AXL is a key regulator of multiple angiogenic behaviors including endothelial cell migration, proliferation, and tube formation in vitro (Holland et al., Cancer Res: 65, 9294-9303, 2005). […] The experiments were pursued in modification of the originally published protocol (Korff and Augustin: J Cell Sci 112: 3249-58, 1999). In brief, spheroids were prepared as described (Korff and Augustin: J Cell Biol 143: 1341-52, 1998) by pipetting 500 human umbilical vein endothelial cells (HUVEC) in a hanging drop on plastic dishes to allow over night spheroid aggregation. 50 HUVEC spheroids were then seeded in 0.9 ml of a collagen solution (2 mg/ml) and pipetted into individual wells of a 24 well plate to allow polymerization. […] Plates were incubated at 37° C. for 24 hours and fixed by adding 4% paraformaldehyde. Sprouting intensity of HUVEC spheroids was quantified by an image analysis system that determines the cumulative sprout length per spheroid using an inverted microscope and the digital imaging software Analysis 3.2 (Soft imaging system, Munster, Germany). The mean of the cumulative sprout length of 10 randomly selected spheroids was analyzed as an individual data point.

[1] = system: NCI-H292 lung cancer cells; experiment: Wound healing/scratch assay; format: cell-based, human; settings: 10 μg/ml antibody, 24 h, compared to isotypic control antibody
Description: To examine the migration and proliferation rates of different cells and culture conditions, in vitro wound healing/scratch assays are being employed for many years. These assays generally involve growing a confluent cell monolayer first. A small area is then disrupted and a group of cells are being destroyed or displaced by scratching a line through the layer with, for example, a pipette tip. The open gap is then inspected microscopically over time as the cells move in and fill the damaged area (“healing”). In brief, 1.5×10^6 NCI-H292 lung cancer cells were seeded per well of a 12 well dish and cultured in normal growth medium (RPMI, 10% FCS). After 8 h, cells were rinsed with PBS and starved in low serum medium (RPMI, 0.5% FCS) over night for 24 h. Using a sterile 200 μl pipette tip, three separate uniform wounds per well were scratched through the confluent NCI-H292 cell monolayers. […] Cells were permitted to migrate into the area of clearing for 24 h, washed once with PBS and fixed with ice cold Methanol (100%) at −20° C. After cells were stained with crystal violet (0.5% in 20% Methanol), rinsed with water and dried over night, photos of the wounds were taken.

B1: 11D5: antagonistic rat anti-AXL monoclonal antibody, rat IgG2a (antibody)
heavy: EVQLQESGPGLVKPSQSLSLTCSVTGYSITSNYWGWIRKFPGNKMEWIGHITNSGNTTYNPSLKSRISISRDTSRNQFFLQLNSVTTEDTATYYCAKGAFDYWGQGVMVTVSS[left out - human IgG1 constant region]
light: DIQMTQSPSSMSTSLGDRVTITCRASQDIGNYLSWFQQKVGKSPRRMIYGAIKLAVGVPSRFSGSRSGSDYSLTISSLESEDMAIYYCLQYIQFPLTFGSGTKLELKRTVAAPSVFIFPPSDEQLKSGTASVVCLLNNFYPREAKVQWKVDNALQSGNSQESVTEQDSKDSTYSLSSTLTLSKADYEKHKVYACEVTHQGLSSPVTKSFNRGEC
modifications: 11D5 HC gamma1; 11D5 LC kappa
notes: antagonistic rat anti-AXL monoclonal antibody, rat IgG2a
Q: Which “HUVEC sprouting at the highest antibody concentration” value (HUVEC spheroids) does the source give for B1 here?
A: not as effective

Q: What about the “re-population of the cleared area (wound closure)” value [1] of the same molecule?
A: reduced the re-population of the cleared area
